Test results as given in PubChem BioAssay AID504832 (National Center for Advancing Translational Sciences (NCATS), 2011).
In all, about 310,000 compounds went through this assay and about 18,000 (5.8%) were called active. The shares of active, inactive and inconclusive entries below differ from those in the screen. Calls follow the shape of the dose curve; as a rule, active = well fitted inhibition curve with a large enough effect; inconclusive = small, poorly fitted or top-dose-only effect, or another doubt; inactive = no such curve, though single readings can be large or run the other way. Potencies of inconclusive entries are left out as doubtful fits.

Assay: Primary qHTS for delayed death inhibitors of the malarial parasite plastid, 48 hour incubation
Settings: P. falciparum luciferase growth in erythrocytes; series mostly up to 28.7 µM
Procedure, shortened: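 A one-generation exposure of luciferase-tagged malaria parasites in RPMI 1640/Albumax erythrocyte culture, 37 C and 5% CO2. Inhibition is inferred from decreased luminescence after adding detection reagent.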
% is scaled to controls: 0 for no effect and ±100 for the full control effect; potency is read from the fitted curve at half-maximal effect; tags tell the direction and shape of the fitted curve.

SMILES | Potency | activity change, negative = inhibition
Cn1c(=O)[nH]c(=O)c2c1nc(CN1CCOCC1)n2Cc1ccc(F)cc1 | inactive | 
COc1ccc(C2=NO[C@@H]3C(=O)N(c4ccc5c(c4)OCCO5)C(=O)[C@H]23)cc1OC | inactive | 
O=C(CSc1nnc(COc2cccc3cccnc23)o1)N1CCN(C(=O)c2ccco2)CC1 | inconclusive [inhibitor, single point] | 
Cc1nnc(NC(=O)CSc2nnc(NC(=O)C(C)(C)C)s2)s1 |  | inactive: -51.4% [at 1.15 µM]
c1ccc2c(c1)ncn2CCOCCOCCn1cnc2ccccc21 | inconclusive [inhibitor, single point] | 
COc1ccc(CNC(=O)CSc2nnnn2-c2ccccc2)cc1 | inconclusive [inhibitor, partial curve, poor fit] | 
O=C1CC(/C=C/c2cccnc2)=Nc2ccccc2N1 | inconclusive [inhibitor, single point] | 
COc1ccccc1-c1c(C)nn2c(N3CCC4(CC3)OCCO4)cc(C)nc12 | inconclusive [inhibitor, single point] | 
Cc1nonc1OCCN1CCN(c2ccc([N+](=O)[O-])cc2)CC1 | inconclusive [inhibitor, full curve, poor fit] | 
CCc1nc2ccc(C(=O)NCc3ccco3)cc2nc1CC | inconclusive [inhibitor, single point] | 
Clc1ccc(N=c2ssnc2Cl)nc1 | inconclusive [inhibitor, partial curve] | 
COc1ccc(-c2cc(C)no2)cc1S(=O)(=O)N1CCCN(Cc2ccc(F)cc2)C1 | inconclusive [inhibitor, single point] | 
COc1cc(N)c(Cl)cc1C(=O)NC1CCN(Cc2ccccc2)CC1 | inconclusive [inhibitor, single point] | 
CCN(CC)C(=O)C(=O)Nc1cccc(Br)c1 | inactive | 
Cc1ccc(-n2nc(C(=O)N3CCOCC3)cc2-c2ccc(Cl)cc2)cc1 | inconclusive [inhibitor, single point] | 
Cc1ccc(NC(=O)Nc2cccn(Cc3c(F)cccc3Cl)c2=O)cc1 | inactive | 
Nc1nc2ccccc2n1CCOc1ccccc1Cl | inconclusive [inhibitor, single point] | 
O=C(Nc1cccc(S(=O)(=O)NC2=NCCCCC2)c1)c1cc(-c2ccncc2)nc2ccccc12 | inconclusive [inhibitor, single point] | 
CCN(Cc1ccncc1)Cc1ccc(OC)cc1OC | inactive | 
Cc1cc(Sc2nnc(/N=C/N(C)C)s2)c2ccccc2n1 | inconclusive [inhibitor, partial curve, poor fit] | 
CC(C)C(=O)Nc1ccc(NC(=O)c2ccco2)cn1 | inactive | 
Cc1nc(Nc2ccc(C(=O)O)cc2)sc1-c1ccccc1 | inactive | 
CCOC(=O)c1cc2c(=O)n3ccccc3nc2n(CC(C)C)c1=NC(=O)c1ccco1 | active: 10.4 µM | 

SMILES | Potency | activity change, negative = inhibition
CCCCN(CC)Cc1c(O)ccc2c3c(c(=O)oc12)CCC3 | inconclusive [inhibitor, single point] | 
O=C(CCn1nc(-c2ccccc2)ccc1=O)N1CCN(c2ccccc2)CC1 | inconclusive [inhibitor, full curve, poor fit] | 
COc1ccc(CNC(=O)COC(=O)c2ccc(OCC3CCCO3)cc2)cc1 (centres undefined) | inconclusive [inhibitor, single point] | 
CCCn1ccc2c(OCC(=O)Nc3ccc(NC(C)=O)cc3)cccc2c1=O | inconclusive [inhibitor, single point] | 
COc1cccc(N(CC(=O)NC2CCCCC2)C(=O)CCC(=O)Nc2nccs2)c1 | inconclusive [inhibitor, partial curve] | 
N=c1n(CCN2CCCCC2)c2ccccc2n1CC(O)c1ccco1 (centres undefined) | inconclusive [inhibitor, single point] | 
COc1ccc(S(=O)(=O)N2CCN(C(=O)c3cccs3)CC2)cc1 | inconclusive [inhibitor, full curve, poor fit] | 
COc1ccc(-c2noc(CCCC(=O)NC3CCCC3)n2)cc1 | inconclusive [inhibitor, single point] | 
CC12CCC(C(=O)N(CCCCN3CCN(c4ccccn4)CC3)C1=O)C2(C)C (centres undefined) | inconclusive [inhibitor, full curve, poor fit] | 
CCCCOC(=O)c1[nH]c2c(c1C)C(=O)CC(c1cc(OC)c(OC)c(OC)c1)C2 (centres undefined) | active: 2.94 µM | 
COC(=O)C1(Cc2ccc(O)cc2)OC(=O)C(O)=C1c1ccc(O)cc1 (centres undefined) | inconclusive [inhibitor, partial curve] | 
CC(=O)c1c(C)[nH]c(C(=O)Nc2ccc(F)cc2F)c1C | inactive | 
CCN(CC(=O)Nc1ccccc1C(F)(F)F)C(=O)CSCc1ccc(C)cc1 | inactive | 
CCN(CC)S(=O)(=O)c1ccc(N=Nc2c(N)[nH]c(=O)[nH]c2=O)cc1 | inconclusive [inhibitor, partial curve, poor fit] | 
CCCN(CC(=O)Nc1ccc(F)c(F)c1F)C(=O)C1CC(=O)N(Cc2ccccc2)C1 (centres undefined) | inconclusive [inhibitor, single point] | 
CCOC(=O)N1CCN(C(=O)c2cc(COc3c(F)cccc3F)on2)CC1 | inactive | 
Cc1nc2c(cc1N)nc(C)n2Cc1ccccc1 | inactive | 
Cc1ccc(C)c(N(C(=O)c2snc(C(N)=O)c2N)C(C(=O)NCC2CCCO2)c2ccc(C)o2)c1 (centres undefined) | inconclusive [inhibitor, partial curve] | 
COc1ccc(C)cc1NC(=O)Nc1cnccn1 | inconclusive [inhibitor, single point] | 
CCN(C(=O)c1ccc2c(=O)n3c(nc2c1)CCCCC3)c1cc(OC)ccc1OC | inconclusive [inhibitor, partial curve] | 
COc1ccc(NC(=O)c2ccc3c(=O)n(-c4ccc(OC)cc4OC)c(=S)[nH]c3c2)cc1 | inconclusive [inhibitor, partial curve, poor fit] | 
CCC(C(=O)c1ccc(O)cc1)c1ccccc1 (centres undefined) | active: 13.1 µM | 
COC(=O)CSc1n[nH]c(-c2ccncc2)n1 | inactive | 

SMILES | Potency | activity change, negative = inhibition
COCCNC(=O)C(=O)NCC(c1ccc2c(c1)OCO2)N1CCN(c2ccc(F)cc2)CC1 (centres undefined) | inconclusive [inhibitor, partial curve, poor fit] | 
CCCOc1ccc2oc(=O)c3c(c2c1)CCCN3C(=O)CN(C)Cc1ccccc1 | inconclusive [inhibitor, single point] | 
Cc1ccc(-n2c(SCC(=O)NCc3cccs3)nnc2-c2ccoc2C)cc1 | inconclusive [inhibitor, partial curve] | 
COc1ccc(SC[C@H](Cc2ccccc2)N2CC[C@@H](O)CCC2=O)cc1 | inactive | 
COc1cccc(/C=C2\SC(=S)N(CCCC(=O)N3CCCCC3CCO)C2=O)c1 (centres undefined) | inconclusive [inhibitor, single point] | 
O=C(CSc1nc2ncc(Br)cc2[nH]1)c1cccc([N+](=O)[O-])c1 | inactive | 
O=C(NCc1cccnc1)/C(=C\c1ccc(-c2ccc(Cl)c(Cl)c2)o1)S(=O)(=O)c1ccccc1 | inconclusive [inhibitor, single point] | 
Cc1n[nH]c(=O)nc1N/N=C/c1cccs1 | inconclusive [inhibitor, full curve] | 
O=C(Nc1nnc(S(=O)(=O)N2CCCCCC2)s1)c1ccccc1Cl | inconclusive [inhibitor, partial curve, poor fit] | 
CCCCN(C)C1CCN(C(=S)Nc2cccc(SC)c2)CC1 | inactive | 
CCOC(=O)c1c(NC(=O)c2cnn3c2NC(c2cccc(OC)c2)CC3C(F)(F)F)sc2c1CCCC2 (centres undefined) | inconclusive [inhibitor, full curve, poor fit] | 
CC(C)Cn1c(SCC(=O)N2CCN(C(=O)c3ccco3)CC2)nc2ccccc2c1=O | inconclusive [inhibitor, single point] | 
COc1cc2c(-c3ccc(O)cc3)nc3c(c(C)nn3-c3ccccc3)c2cc1OC | active: 14.7 µM | 
COc1ccccc1OP(=O)(O)Oc1ccccc1OC | inconclusive [inhibitor, single point] | 
CCc1ccc(N2CN(CCc3ccccc3)CNC2=S)cc1 | inconclusive [inhibitor, single point] | 
CCNC(=O)/C(C#N)=C/c1c(N2CCN(c3cccc(Cl)c3)CC2)nc2c(C)cccn2c1=O | active: 11.7 µM | 
COCCNc1nnc(SCC(=O)NC(=O)c2ccccc2)s1 | inactive | 
CCN(CC)c1nc(=S)nc(NC(C)(C)C)[nH]1 | inconclusive [inhibitor, single point] | 
Cc1occc1C(=O)NNC(=O)C1CCCCC1 | inactive | 
Nc1nc(NCc2ccc(Cl)cc2)nc(NCCO)c1[N+](=O)[O-] | inconclusive [inhibitor, partial curve, poor fit] | 
O=C(NCc1ccccn1)c1ccccc1OCc1ccc(F)cc1 | inconclusive [inhibitor, partial curve, poor fit] | 
CCn1c(-c2ccc(C(C)(C)C)cc2)n[nH]c1=S | inactive | 
COCc1cc(=O)[nH]c(/N=C(\N)Nc2ccc(Oc3ccccc3)cc2)n1 | inconclusive [inhibitor, partial curve, poor fit] | 
